Experimental data taken from patent US11135177B2, “Methods of making and using compositions comprising flavonoids” (VIZURI HEALTH SCIENCES CONSUMER HEALTHCARE, INC., priority 2009, dated 2021).
Like-named read-outs stand apart in the source and are kept apart here.

Experiments:
skin cancer [1] = conditions: topical application prior to UVB-irradiation, mouse; cited from earlier work
[2] = cited from earlier work
[3] = Apigenin solubility testing in solvents (Examples 2, 4); assay type: physicochemical; conditions: for solubility in alcohol solvents: isopropyl alcohol, butylene glycol, glycerin
skin cancer [4] = conditions: anti skin cancer activities; cited from earlier work
[5] = Solubility in molten vitamins B5 / B3; conditions: molten D,L Panthenol, approximately 65° C.
[6] = ethoxydiglycol, propylene glycol

Structure (SMILES) | reduction of the incidence of skin cancer (skin cancer [1]) | dimethylsulfoxide (DMSO) solubility ([2]; DMSO, reported in the literature) [µg/mL] | solubility in water ([2]; water, Li et al. 1997) [µg/mL] | solubility in acetone ([3]; acetone) | solubility in ethanol ([3]; ethanol) | solubility in ethoxydiglycol ([3]; ethoxydiglycol) | solubility in alcohol solvents [3, 6] | solubility ([3]; propylene glycol, organic solvent or mixture) [µg/mL] | solubility in water ([3]; water) | concentration at which it acts effectively (skin cancer [4]) [µM] | solubility in molten D,L Panthenol [5]
O=c1cc(-c2ccc(O)cc2)oc2cc(O)cc(O)c12 [apigenin, 4′,5,7,-trihydroxyflavone] | up to 90% | > 100000 | < 5 | less than 2 mg/ml | less than 2 mg/ml | greater than 10 mg/ml | essentially insoluble | < 1000 | negligible solubility | < 50 | –
O=c1cc(-c2ccc(O)cc2)oc2cc(O)cc(O)c12 [hydrated apigenin] | – | – | – | – | – | – | limited solubility | – | – | – | readily dissolved
O=c1cc(-c2ccc(O)c(O)c2)oc2cc(O)cc(O)c12 [luteolin, 3′,4′,5,7-tetrahydroxyflavone] | – | – | – | – | – | – | essentially insoluble | – | – | – | –
